Reference: the RNAGym collection of RNA variant scans (doi:10.7554/elife.90254)
Read counts are not given, so values of variants with three or more changes are uncertain.

B1: LINE1-full (parent)
chain: UACGUAGGUGGUUUUCCCCUGAUAGUGCUAAGGGGGCCUGGAAGUUUGGACUGGGCAGAGCUCAACACAGCGUGGCAAAGUGGCUGUGGCUAGACUGCCUCUCUGGAUUCCUCGUCACUCAGCAGGGCAUCUCUGAGAGAAAUGCC

Variants of: B1
Test: self-cleavage, relative activity (ratio to wild type); higher = more cleavage; in vitro, sequencing; the parent is a self-cleaving ribozyme

Variant	self-cleavage
U15C U20C U26A U132C	0.27
A67G U87A U132G A141G	0.19
U14C U20C A67U	0.3
A67U A79G U132C	0.14
U9C U45C A59U G125A	0.65
U62C A78G A138G	0.07
A2G U47G G105A A129G	1.41
A57U U115C A141G	0.07
C37U A59U A142G	0.63
A59G A142G U143C	0
A57U A65G U104A U143A	0
U52A A65G U100C U112C A141G	0
U52G A57C G74A A140G	0.16
U26C G49C G55C A141G	0
A77U U85C A107C A124G	0
U81G U91C A124G	1.02
U26C U85A A136U	0.12
A30U U39A A42G U62C A65C	0
A6U U39A U108C	1.41
U1C U9C G106A	2.04
G40A U102C U130C	1.4

Variant	self-cleavage
U12A A43U U73C A107U C113A	1.2
U13A A92U U115C	0.7
C3U U23C A79G C101U U115A	1.31
A57G A64U A65G U100C C103A	0.13
C18A C133U A140G	0.93
A92G C120U G125A	0
A2G U14C A30U A50G U81G	0
U39C A64U A77U	0.28
U12C U45C A77U U96A	0.16
U12C U47C U96C A129G	0.77
U45C U119C A142G	2.78
A24G C110U U112A	0.77
G41U U46C A50G	1.44
A22G A42G A59G A79U U112C A117U A129U	0.64
U1A C17U A121G U143C	1.31
U26C C66U U109C	0.06
U1G U5C A22U A59G	0.43
A107G U112A C123U	1.16
U62C A124G U134A	0.06
A42G U109C A141U	1.04
U13A U46C U102C	1.87

Variant	self-cleavage
U81A U96A A107G A140G	0.07
U12G A42G U85A C133A A142G	0.12
U62C A121U U130A	0.08
U62C A79G U100C	0
U52C U96A U115C	0.1
U1C A2G U85A U112C U143C G144A	0
U1C A43G U73C U104A	0.62
A77U U108A G127C	1.27
A64G U109C A121G	0
U62C G74A U108C	0.02
U12C A31U A59G	0.17
G58U A67G A124G	0.1
A22G U23C A77U	2.12
A22U U91C U104C	0
A42C U81C U115A	0.71
A69G A142G U143C	0
A65G A117U U119C A138G	0.05
C16U U45A U85C A140G	0.11
U1C A79U U91A U112A A138G	0.53
A59G A136G A140G	0.09
U26A U47C A121U	1.5

Variant	self-cleavage
A22G U46A U108C	1.89
A42G G48A A65U A79G G105A G139A	0.13
A6U A50G U143C	0.73
U46C A50U U119C U132C	2.19
U47A A92U U130A	0.63
U15C G21A U112A U134C	2.83
G126A A136G A138G	1.54
A24U U39A U87C U96C A140G	0
U9C A64G U108C U134A	0.81
U1A A64U U112C	0.51
U26C U39A C111U U115C	1.6
A78G U96C C101A	0.16
A42G A64C A67G U134C A141G	0
A59U U87A A107G	0.05
A65U U87A U112C A129G U143C	0.03
G33U U130C A140G	1.78
C37A A69G C103U U143A	0.56
A50C A67G U115C G122A	0.36
C17U A42G U46C U119A	1.02
C37G U46C G72A	1.36
